# The list shows a part of the results.
# B1: PX9937J-pdi-523-26-523 (Parabacteroides distasonis) (protein)
# chain: EPVSSISDANYWKSPDLFKAFNIGLHGLLRSQSSYNIFVLGEPRSDIYGDQPFGGEATQGVERFSYNTINAEFTGISNFANFYTTLNQINLMIRRTNETDLLGEAEKNYYLGQAYGLRAYIYFHLLRSWGDVIITTEPTLGSELDISHLDKAASPASEVMDLIKKDIDASEKAFGGDYSYKQGKCYWSKPATLMLKGEVYLWSGRQMGGGTGDYTVAKTALQDLQQNGNLKLQEKFTDVFSFNNKENSEMIFALHSGKEDDFMMWRDYNWRNNMVPQREYMAGYCDETGTPFLEIPGYNLQGLMRYQVKKDHYLKSFREGDTRLKGTLKAVYKKHEDGTLEYIAPIQYKFQGTTLEGSNERSWYDDYPIYRYADALLLLAEAKALLGEDPSTEINAVRERAYGSEYFNAHKNEVAYPNDKGSFYNDNPFEAGDENVMEAILKERLREFFFEGKRWYDLRRFGKDYVLKYTTAQESRLLWPINEGALTNNPALKQTPGY
# How the values were obtained:
# Assay in all cases: glycan array binding signal (z-score within array); higher = stronger binding
# Settings in all cases: glycan notation: IUPAC condensed, linker removed
# [1] = molecular target: Fuc(a1-2)[Gal(a1-4)]Gal(b1-4)GlcNAc
# How it was run: (§1)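 Glycan array data came from 3228 arrays in the Consortium for Functional Glycomics database, and only arrays with an available protein sequence were kept. Glycan names were put into IUPAC-condensed notation, and columns mapping to the same glycan were averaged. The binding signal is a within-array Z-score, averaged across arrays of one protein sequence run at different concentrations or buffers and across linkers. A negative Z-score can be read as non-binding.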
# [2] = molecular target: Fuc(a1-2)[GalNAc(a1-3)]Gal
# How it was run: as §1
# [3] = molecular target: Fuc(a1-2)[GalNAc(a1-3)]Gal(b1-3)GalNAc(a1-3)[Fuc(a1-2)]Gal(b1-4)GlcNAc
# How it was run: as §1
# [4] = molecular target: Fuc(a1-2)[GalNAc(a1-3)]Gal(b1-3)GalNAc(b1-3)Gal(a1-4)Gal(b1-4)Glc
# How it was run: as §1
# [5] = molecular target: Fuc(a1-2)[GalNAc(a1-3)]Gal(b1-3)GlcNAc
# How it was run: as §1
# [6] = molecular target: Fuc(a1-2)[GalNAc(a1-3)]Gal(b1-3)GlcNAc(b1-2)Man(a1-3)[Fuc(a1-2)[GalNAc(a1-3)]Gal(b1-3)GlcNAc(b1-2)Man(a1-6)]Man(b1-4)GlcNAc(b1-4)GlcNAc
# How it was run: as §1
# [7] = molecular target: Fuc(a1-2)[GalNAc(a1-3)]Gal(b1-3)GlcNAc(b1-2)Man(a1-3)[Fuc(a1-2)[GalNAc(a1-3)]Gal(b1-3)GlcNAc(b1-2)Man(a1-6)]Man(b1-4)GlcNAc(b1-4)[Fuc(a1-6)]GlcNAc
# How it was run: as §1
# [8] = molecular target: Fuc(a1-2)[GalNAc(a1-3)]Gal(b1-3)GlcNAc(b1-3)GalNAc
# How it was run: as §1
# [9] = molecular target: Fuc(a1-2)[GalNAc(a1-3)]Gal(b1-3)GlcNAc(b1-6)GalNAc
# How it was run: as §1
# [10] = molecular target: Fuc(a1-2)[GalNAc(a1-3)]Gal(b1-4)Glc
# How it was run: as §1
# [11] = molecular target: Fuc(a1-2)[GalNAc(a1-3)]Gal(b1-4)GlcNAc
# How it was run: as §1
# [12] = molecular target: Fuc(a1-2)[GalNAc(a1-3)]Gal(b1-4)GlcNAc(b1-2)Man
# How it was run: as §1
# [13] = molecular target: Fuc(a1-2)[GalNAc(a1-3)]Gal(b1-4)GlcNAc(b1-2)Man(a1-3)[Fuc(a1-2)[GalNAc(a1-3)]Gal(b1-4)GlcNAc(b1-2)Man(a1-6)]Man(b1-4)GlcNAc(b1-4)GlcNAc
# How it was run: as §1
# [14] = molecular target: Fuc(a1-2)[GalNAc(a1-3)]Gal(b1-4)GlcNAc(b1-2)Man(a1-3)[Fuc(a1-2)[GalNAc(a1-3)]Gal(b1-4)GlcNAc(b1-2)Man(a1-6)]Man(b1-4)GlcNAc(b1-4)[Fuc(a1-6)]GlcNAc
# How it was run: as §1
# [15] = molecular target: Fuc(a1-2)[GalNAc(a1-3)]Gal(b1-4)GlcNAc(b1-3)Gal(b1-4)GlcNAc
# How it was run: as §1
# [16] = molecular target: Fuc(a1-2)[GalNAc(a1-3)]Gal(b1-4)GlcNAc(b1-3)Gal(b1-4)GlcNAc(b1-3)Gal(b1-4)GlcNAc
# How it was run: as §1
# [17] = molecular target: Fuc(a1-2)[GalNAc(a1-3)]Gal(b1-4)GlcNAc(b1-3)GalNAc
# How it was run: as §1
# [18] = molecular target: Fuc(a1-2)[GalNAc(a1-3)]Gal(b1-4)GlcNAc(b1-3)[Fuc(a1-2)[GalNAc(a1-3)]Gal(b1-4)GlcNAc(b1-6)]GalNAc
# How it was run: as §1
# [19] = molecular target: Fuc(a1-2)[GalNAc(a1-3)]Gal(b1-4)GlcNAc(b1-6)GalNAc
# How it was run: as §1
# [20] = molecular target: Fuc(a1-2)[GalNAc(a1-3)]Gal(b1-4)[Fuc(a1-3)]GlcNAc
# How it was run: as §1
# [21] = molecular target: Fuc(a1-2)[GalNAc(a1-3)]Gal(b1-4)[Fuc(a1-3)]GlcNAc(b1-3)GalNAc
# How it was run: as §1
# [22] = molecular target: Fuc(a1-2)[GalNAc(a1-4)]Gal(b1-4)GlcNAc
# How it was run: as §1
# [23] = molecular target: Fuc(a1-2)[GalNAc(b1-3)]Gal
# How it was run: as §1
# Fuc(a1-3)GlcNAc = molecular target: Fuc(a1-3)GlcNAc
# How it was run: as §1
# [24] = molecular target: Fuc(a1-3)[Gal(b1-4)]Glc6S
# How it was run: as §1
# [25] = molecular target: Fuc(a1-3)[Gal(b1-4)]GlcNAc
# How it was run: as §1
# [26] = molecular target: Fuc(a1-3)[Gal(b1-4)]GlcNAc(b1-2)Man
# How it was run: as §1
# [27] = molecular target: Fuc(a1-3)[Gal(b1-4)]GlcNAc(b1-2)Man(a1-3)[Fuc(a1-3)[Gal(b1-4)]GlcNAc(b1-2)Man(a1-6)]Man(b1-4)GlcNAc(b1-4)GlcNAc
# How it was run: as §1
# [28] = molecular target: Fuc(a1-3)[Gal(b1-4)]GlcNAc(b1-2)Man(a1-3)[Fuc(a1-3)[Gal(b1-4)]GlcNAc(b1-2)Man(a1-6)]Man(b1-4)GlcNAc(b1-4)[Fuc(a1-6)]GlcNAc
# How it was run: as §1
# [29] = molecular target: Fuc(a1-3)[Gal(b1-4)]GlcNAc(b1-3)Gal(b1-3)[Fuc(a1-4)]GlcNAc
# How it was run: as §1
# [30] = molecular target: Fuc(a1-3)[Gal(b1-4)]GlcNAc(b1-3)Gal(b1-4)[Fuc(a1-3)]GlcNAc
# How it was run: as §1
# [31] = molecular target: Fuc(a1-3)[Gal(b1-4)]GlcNAc(b1-3)Gal(b1-4)[Fuc(a1-3)]GlcNAc(b1-3)Gal(b1-4)[Fuc(a1-3)]GlcNAc
# How it was run: as §1
# [32] = molecular target: Fuc(a1-3)[Gal(b1-4)]GlcNAc(b1-3)GalNAc
# How it was run: as §1
# [33] = molecular target: Fuc(a1-3)[Gal(b1-4)]GlcNAc(b1-6)GalNAc
# How it was run: as §1
# [34] = molecular target: Fuc(a1-3)[Gal(b1-4)]GlcNAc(b1-6)[Gal(b1-3)GlcNAc(b1-3)]Gal(b1-4)Glc
# How it was run: as §1
# [35] = molecular target: Fuc(a1-3)[Gal(b1-4)]GlcNAc6S
# How it was run: as §1
# [36] = molecular target: Fuc(a1-3)[Gal3S(b1-4)]Glc
# How it was run: as §1
# [37] = molecular target: Fuc(a1-3)[Gal3S(b1-4)]GlcNAc
# How it was run: as §1
binder,measurement,setting,value
B1,glycan array binding signal (z-score),[1],-0.118
same,glycan array binding signal (z-score),[2],-0.296
same,glycan array binding signal (z-score),[3],-0.423
same,glycan array binding signal (z-score),[4],0.175
same,glycan array binding signal (z-score),[5],-0.541
same,glycan array binding signal (z-score),[6],-0.515
same,glycan array binding signal (z-score),[7],-0.256
same,glycan array binding signal (z-score),[8],-0.255
same,glycan array binding signal (z-score),[9],-0.087
same,glycan array binding signal (z-score),[10],-0.35
same,glycan array binding signal (z-score),[11],-0.485
same,glycan array binding signal (z-score),[12],-0.345
same,glycan array binding signal (z-score),[13],-0.534
same,glycan array binding signal (z-score),[14],0.009
same,glycan array binding signal (z-score),[15],0.126
same,glycan array binding signal (z-score),[16],-0.377
same,glycan array binding signal (z-score),[17],-0.492
same,glycan array binding signal (z-score),[18],-0.056
same,glycan array binding signal (z-score),[19],-0.639
same,glycan array binding signal (z-score),[20],-0.526
same,glycan array binding signal (z-score),[21],-0.702
same,glycan array binding signal (z-score),[22],-0.432
same,glycan array binding signal (z-score),[23],0.191
same,glycan array binding signal (z-score),Fuc(a1-3)GlcNAc,-0.25
same,glycan array binding signal (z-score),[24],-0.103
same,glycan array binding signal (z-score),[25],0.039
same,glycan array binding signal (z-score),[26],-0.124
same,glycan array binding signal (z-score),[27],-0.204
same,glycan array binding signal (z-score),[28],-0.6
same,glycan array binding signal (z-score),[29],-0.836
same,glycan array binding signal (z-score),[30],-0.212
same,glycan array binding signal (z-score),[31],-0.256
same,glycan array binding signal (z-score),[32],-0.643
same,glycan array binding signal (z-score),[33],-0.093
same,glycan array binding signal (z-score),[34],-0.503
same,glycan array binding signal (z-score),[35],5.71
same,glycan array binding signal (z-score),[36],0.216
same,glycan array binding signal (z-score),[37],-0.156

# From the supplement of paper PMC8728848
